# Test results: PubChem BioAssay AID2546 (National Center for Advancing Translational Sciences (NCATS), 2010)
# Out of some 310,000 compounds screened, about 11,000 (3.5%) were called active. Inconclusive results, whose numbers are uncertain, are shown with a selection of clear calls. The call rests on the fitted dose curve; in most records, active means well fitted inhibition curve with a large enough effect; inconclusive means small, poorly fitted or top-dose-only effect, or effect the other way; inactive means flat fitted curve, though single readings scatter. Potencies of inconclusive entries are left out as doubtful fits.
# Assay: VP16 counterscreen qHTS for inhibitors of ROR gamma transcriptional activity;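 further: Gal4-VP16 expression switched on by copper sulfate through the metallothionein promoter; nearly all actives have a fitted effect of over 50% in size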
# Settings: Drosophila S2 Gal4-VP16 UAS-luciferase, luminescence, 20 h; activity, negative = inhibition: at 53.6 µM (top of the series)
# On the % scale 0 is the no-effect control and ±100 the full control effect; potency means the concentration at half of the fitted maximal effect; tags describe the fitted curve by direction and shape.
Compound,Potency,"activity, negative = inhibition"
COC(=O)c1ccc(NC(=S)N2CCN(Cc3ccccc3)CC2)cc1,"inconclusive [inhibitor, single point]",–
CSc1cccc(NC(=S)NC(=O)CCc2ccccc2)c1,active: 8.91 µM,–
CCc1ccccc1Nc1nn2c(=O)c3ccc(C(=O)NCc4ccccn4)cc3nc2s1,–,inactive: -0.751%
CNC(=S)Nc1ccccc1-c1ccccc1,"inconclusive [inhibitor, single point]",–
Cc1ncoc1C(=O)N1CCCC(C(=O)c2ccc(Oc3ccccc3)cc2)C1 (centres undefined),"inconclusive [inhibitor, single point]",–
CC1CN(C(=O)CCC(=O)N2CCN(c3cccc(C(F)(F)F)c3)CC2)c2ccccc2O1 (centres undefined),"inconclusive [inhibitor, single point]",–
COCCCNc1ncnc2ccc(C)cc12,"inconclusive [activator, partial curve, poor fit]",–
COc1c(/C=N/NC(N)=S)c(C)nn1-c1ccccc1,"inconclusive [inhibitor, single point]",–
O=C1CCC(=O)N1c1ccc(-c2nc3ccccc3s2)cc1,"inconclusive [inhibitor, partial curve]",–
O=C(Cn1cnc2ccccc2c1=O)Nc1cccc(S(=O)(=O)N2CCCCC2)c1,"inconclusive [inhibitor, partial curve, poor fit]",–
CCn1cc(S(=O)(=O)N2CCc3ccccc3C2)cn1,"inconclusive [inhibitor, partial curve, poor fit]",–
COc1ccccc1NC(=S)N1CCN(c2cccc(C)c2C)CC1,active: 11.2 µM,–
COc1cc(OC)cc(-c2nnc(Nc3nc4c(F)cccc4s3)o2)c1,active: 1.58 µM,–
Cc1cc(Cl)c(OCCCn2ccnc2)c(Br)c1,"inconclusive [inhibitor, single point]",–
CC(=O)N1C2(C=CC1(C)C(=O)NCc1ccccn1)CCCCC2 (centres undefined),"inconclusive [inhibitor, single point]",–
COc1cccc(-c2c(C(=O)N/N=C/c3ccc(C)o3)nnn2-c2nonc2N)c1,"inconclusive [inhibitor, partial curve, poor fit]",–
COc1ccc(C=NCC2OCCc3ccccc32)cc1OC (centres undefined),"inconclusive [activator, single point]",–
CCN(CC)S(=O)(=O)c1ccc(N=Nc2c(C)[nH]n(C(N)=S)c2=O)cc1,active: 0.0126 µM,–
CCCC1=NN(C(=O)CCc2ccccc2O)C(O)(C(F)(F)F)C1 (centres undefined),"inconclusive [inhibitor, single point]",–
